Values marked as one replicate rest on one cluster of the flow cell; about a third of the high ones do not repeat.
What follows are sequences tested on ATP (assay: switch fluorescence ratio, 500 uM ATP over buffer (Cy3 cluster intensity, sum of 5 cycles each) (fold (ratio)); higher = stronger signal-on switching upon ATP binding; sequences stand for … in TCGTCGGCAGCGTCAGATGTGTATAAGAGACAGTTTTTTTTTTTTTTTTTTTTTTTTT…TC). Conditions: aptamer strand: ATP DNA aptamer (quencher-CACCTGGGGGAGTATTGCGGAGGAAGG + anchor), 100 nM annealed; ATP concentration: 500 uM; one replicate.
In short: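 The quencher-labelled ATP aptamer, at 100 nM, was annealed to Cy3-labelled switching-strand clusters on a modified Illumina MiSeq flow-cell. The clusters were imaged in selection buffer, then after 15 min with 500 uM ATP at 22 °C, and this buffer/ATP cycle ran five times with NaOH stripping and re-annealing between runs. Per-cluster fluorescence ratios, summed target-cycle over summed buffer-cycle Cy3 intensity, were averaged per switch-domain sequence. Clusters outside 100-1000 RFU were excluded.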
For TCATTAGATA, the switch fluorescence ratio was 1.01.
TCATTATTAC showed a switch fluorescence ratio of 1.08.
Work on TCATTCATAT yielded a switch fluorescence ratio of 1.01.
For TCATTCTAGC, the switch fluorescence ratio was 0.935.
In the case of TCATTGAAAA, the switch fluorescence ratio is reported as 0.987.
In the case of TCATTGCACC, the switch fluorescence ratio is reported as 1.06.
Work on TCATTGCGCG yielded a switch fluorescence ratio of 1.06.
With TCATTGGTCC the switch fluorescence ratio was 1.16.
TCATTGTATA gave a switch fluorescence ratio of 0.966.
With TCATTTAGTT the switch fluorescence ratio was 1.01.
Sequence TCCAAAACGG has a switch fluorescence ratio of 1.07.
Sequence TCCAAATTTA has a switch fluorescence ratio of 0.951.
Sequence TCCAACTGGG has a switch fluorescence ratio of 1.01.
Work on TCCAACTTTG yielded a switch fluorescence ratio of 0.938.
In the case of TCCACGGGGG, the switch fluorescence ratio is reported as 1.1.
Sequence TCCACTAGGA has a switch fluorescence ratio of 1.09.
TCCAGAGAAG showed a switch fluorescence ratio of 1.
In the case of TCCAGAGAGT, the switch fluorescence ratio is reported as 1.
TCCAGGCACG showed a switch fluorescence ratio of 1.03.
TCCAGGCTGC gave a switch fluorescence ratio of 1.12.
In the case of TCCAGTGAGT, the switch fluorescence ratio is reported as 1.04.
TCCATATCTT showed a switch fluorescence ratio of 1.
With TCCATCGAAA the switch fluorescence ratio was 1.08.
TCCATCGGTG showed a switch fluorescence ratio of 0.998.
TCCATCTCAT showed a switch fluorescence ratio of 1.02.
TCCATCTTTG gave a switch fluorescence ratio of 0.983.
Work on TCCATGAGGA yielded a switch fluorescence ratio of 0.946.
TCCATTGCTG was tested, and the switch fluorescence ratio was 1.03.
Sequence TCCCAGTCGT has a switch fluorescence ratio of 1.01.
For TCCCATTAAG, the switch fluorescence ratio was 0.994.
With TCCCCATCC the switch fluorescence ratio was 1.08.
Work on TCCCCCAATA yielded a switch fluorescence ratio of 1.06.
TCCCCCAGCC gave a switch fluorescence ratio of 3.13.
TCCCCCCTCA gave a switch fluorescence ratio of 1.68.
In the case of TCCCGATCGC, the switch fluorescence ratio is reported as 2.15.
Work on TCCCGCCACG yielded a switch fluorescence ratio of 1.09.
In the case of TCCCGCGTC, the switch fluorescence ratio is reported as 2.69.
In the case of TCCCGCGTCC, the switch fluorescence ratio is reported as 2.48.
For TCCCTAAACG, the switch fluorescence ratio was 1.14.
TCCCTATTTA gave a switch fluorescence ratio of 1.01.
In the case of TCCCTGGAGA, the switch fluorescence ratio is reported as 1.05.
For TCCCTGGTTT, the switch fluorescence ratio was 1.09.
In the case of TCCCTTTTT, the switch fluorescence ratio is reported as 1.06.
TCCGAGTCT was tested, and the switch fluorescence ratio was 1.01.
In the case of TCCGATCGGG, the switch fluorescence ratio is reported as 1.01.
TCCGATGGGA gave a switch fluorescence ratio of 0.978.
TCCGCACAGT showed a switch fluorescence ratio of 2.23.
For TCCGCCACGC, the switch fluorescence ratio was 2.
TCCGCCCAG showed a switch fluorescence ratio of 1.01.
TCCGCCGGGA showed a switch fluorescence ratio of 1.96.
TCCGCGACGA was tested, and the switch fluorescence ratio was 4.48.
With TCCGCGATCT the switch fluorescence ratio was 1.44.
For TCCGGAAAAA, the switch fluorescence ratio was 1.16.
TCCGGAGTGG gave a switch fluorescence ratio of 2.17.
Sequence TCCGGCATAG has a switch fluorescence ratio of 2.16.
Sequence TCCGGGCCAT has a switch fluorescence ratio of 1.2.
TCCGGGCTAA gave a switch fluorescence ratio of 1.
For TCCGGTGAGT, the switch fluorescence ratio was 1.07.
TCCGGTTCCG was tested, and the switch fluorescence ratio was 1.02.
In the case of TCCGTAGCGC, the switch fluorescence ratio is reported as 1.06.
Work on TCCGTAGGGT yielded a switch fluorescence ratio of 1.03.
Sequence TCCGTGACTG has a switch fluorescence ratio of 0.992.
For TCCGTGTCCT, the switch fluorescence ratio was 1.09.
Work on TCCGTGTCTT yielded a switch fluorescence ratio of 0.969.
TCCTACCCTC showed a switch fluorescence ratio of 1.29.
TCCTACGGTA gave a switch fluorescence ratio of 2.78.
TCCTACTAGA showed a switch fluorescence ratio of 1.1.
For TCCTAGTGCT, the switch fluorescence ratio was 1.01.
TCCTATAAAT showed a switch fluorescence ratio of 1.
TCCTATATCT gave a switch fluorescence ratio of 1.08.
For TCCTATCCAT, the switch fluorescence ratio was 1.04.
For TCCTATTCTC, the switch fluorescence ratio was 0.974.
TCCTCAGGGT was tested, and the switch fluorescence ratio was 1.26.
Work on TCCTCGACCC yielded a switch fluorescence ratio of 1.29.
TCCTCGGTG showed a switch fluorescence ratio of 1.14.
Sequence TCCTCTAAGA has a switch fluorescence ratio of 1.13.
With TCCTCTACT the switch fluorescence ratio was 1.19.
TCCTGCATT gave a switch fluorescence ratio of 1.21.
In the case of TCCTGCGGTT, the switch fluorescence ratio is reported as 1.24.
TCCTGCTCGA showed a switch fluorescence ratio of 0.952.
TCCTGCTTAG was tested, and the switch fluorescence ratio was 1.05.
With TCCTGTGCGC the switch fluorescence ratio was 1.5.
TCCTTAAGC showed a switch fluorescence ratio of 1.41.
In the case of TCCTTAAGCC, the switch fluorescence ratio is reported as 1.7.
TCCTTACCCA showed a switch fluorescence ratio of 1.74.

From the supplement of paper PMC10126150
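Further: ATP exposure 15 min at 22 °C before imaging.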
